In general, EC50 refers to the concentration needed to bring the measured effect to its halfway point. A word on the Kd: it is the constant that tells how readily two partners part at equilibrium. By kon is commonly meant the rate constant with which the complex forms.

The target of assay [1] is recombinant human PD-1 (Example 2) (human) (UniProt Q15116). The assay can be described thus: competition ELISA: PD-L1 coated, antibody mixed with biotinylated PD-1 at 0.6 ug/mL, streptavidin peroxidase; blocked ligand PD-L1.
UniProt Q15116, sequence (Q15116 25-167 limits assumed): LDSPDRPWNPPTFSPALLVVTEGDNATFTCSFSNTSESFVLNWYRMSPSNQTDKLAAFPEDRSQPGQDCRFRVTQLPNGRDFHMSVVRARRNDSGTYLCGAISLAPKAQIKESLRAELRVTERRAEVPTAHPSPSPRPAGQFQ
In assay [2] the target is IL-7 receptor (IL-7R) on human PBMCs / T cells (human) (UniProt P16871). In words: cell-based or functional assay.
The target in assay [3] is T1, CD127 recombinant protein (Histidine tagged, Sino ref 10975-H08H) (UniProt P16871).
T1 sequence (looked up): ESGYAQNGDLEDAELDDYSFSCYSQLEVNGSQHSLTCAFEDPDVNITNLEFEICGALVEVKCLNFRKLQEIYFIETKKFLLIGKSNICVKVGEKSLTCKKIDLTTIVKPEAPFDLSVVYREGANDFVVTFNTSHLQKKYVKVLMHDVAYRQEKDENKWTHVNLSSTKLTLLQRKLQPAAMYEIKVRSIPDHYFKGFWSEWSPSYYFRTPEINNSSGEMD
The assay can be described thus: CD127 binding sandwich ELISA: PD-1 coated, bifunctional molecule pre-incubated with His-tagged CD127, anti-His detection. In general terms: ELISA stands for enzyme-linked immunosorbent assay.

For assay [4], the target named is T2, CD127 (Sinobiological, 10975-H03H-50) (UniProt P16871).
T2 sequence (looked up): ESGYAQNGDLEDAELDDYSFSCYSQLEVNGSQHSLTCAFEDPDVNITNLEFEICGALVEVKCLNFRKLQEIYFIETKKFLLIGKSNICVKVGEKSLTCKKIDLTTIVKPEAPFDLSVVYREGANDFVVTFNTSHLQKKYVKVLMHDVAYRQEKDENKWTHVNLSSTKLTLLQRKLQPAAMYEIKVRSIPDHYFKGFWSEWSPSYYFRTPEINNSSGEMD
In words: Biacore, CD127 immobilised on CM5 chip; two-state reaction model. (In general: Surface plasmon resonance follows binding to a sensor surface in real time, without labels.)

The target of assay [5] is T3, CD132 receptor (Sinobiological 10555-H08B) (UniProt P31785).
T3 sequence (looked up): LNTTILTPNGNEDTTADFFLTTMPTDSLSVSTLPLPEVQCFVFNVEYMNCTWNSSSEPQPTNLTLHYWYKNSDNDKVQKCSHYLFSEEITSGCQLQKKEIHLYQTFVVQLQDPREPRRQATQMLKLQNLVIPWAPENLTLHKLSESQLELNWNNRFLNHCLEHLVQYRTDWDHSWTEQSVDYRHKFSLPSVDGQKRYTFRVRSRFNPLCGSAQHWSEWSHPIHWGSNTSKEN
The assay can be described thus: Biacore, CD132 injected over the complex CD127 + IgG fused IL-7 (30 nM); steady-state model.

B1: anti-PD1VL-IL7, chimeric form (protein)
heavy: QIQLVQSGPELKKPGETVKISCKASGYTFTHYGMNWVKQAPGKGLKWMGWINTNTGEPTYAEEFKGRFAFSLETSASAAFLQINNLKNEDTATYFCAKEREPGMDSWGQGTSVTVSSASTKGPSVFPLAPCSRSTSESTAALGCLVKDYFPEPVTVSWNSGALTSGVHTFPAVLQSSGLYSLSSVVTVPSSSLGTKTYTCNVDHKPSNTKVDKRV[here human IgG4 Fc with S228P L445P (EU numbers) without letters]
light: DVLLTQTPLSLPVSLGDQASISCRSSQNIVHANGNTYLEWYLQKPGQSPKLLIYKVSNRFSGVPDRFSGSGSGTDFTLKITRVEAEDLGVYYCFQGSHVPNTFGGGTKLEIKRTVAAPSVFIFPPSDEQLKSGTASVVCLLNNFYPREAKVQWKVDNALQSGNSQESVTEQDSKDSTYSLSSTLTLSKADYEKHKVYACEVTHQGLSSPVTKSFNRGECGGGGSGGGGSGGGGSDCDIEGKDGKQYESVLMVSIDQLLDSMKEIGSNCLNNEFNFFKRHICDANKEGMFLFRAARKLRQFLKMNSTGDFDLHLLKVSEGTTILLNCTGQVKGRKPAALGEAQPTKSLEENKSLKEQKKLNDLCFLKRLLQEIKTCWNKILMGTKEH
Consider B1, for which the IC50 (read off the curve) in assay [1] stood at 5 nM.

B2: IgG4 G4S3 IL7 W142F (protein, part only; not given: anti-PD-1 variable domains and light chain, part only)
heavy, part: ASTKGPSVFPLAPCSRSTSESTAALGCLVKDYFPEPVTVSWNSGALTSGVHTFPAVLQSSGLYSLSSVVTVPSSSLGTKTYTCNVDHKPSNTKVDKRV[here human IgG4 Fc with S228P L445P (EU numbers) without letters]GGGGSGGGGSGGGGSDCDIEGKDGKQYESVLMVSIDQLLDSMKEIGSNCLNNEFNFFKRHICDANKEGMFLFRAARKLRQFLKMNSTGDFDLHLLKVSEGTTILLNCTGQVKGRKPAALGEAQPTKSLEENKSLKEQKKLNDLCFLKRLLQEIKTCFNKILMGTKEH
Consider B2, for which the pSTAT5 signal in human PBMC T cells, EC50 in assay [2] worked out at 102 ng/mL. Also, the EC50 in assay [3] worked out at 0.0349 µg/mL.

B3: IGG4 G4S3 IL7 W142Y (protein, part only; not given: anti-PD-1 variable domains and light chain, part only)
heavy, part: ASTKGPSVFPLAPCSRSTSESTAALGCLVKDYFPEPVTVSWNSGALTSGVHTFPAVLQSSGLYSLSSVVTVPSSSLGTKTYTCNVDHKPSNTKVDKRV[here human IgG4 Fc with S228P L445P (EU numbers) without letters]GGGGSGGGGSGGGGSDCDIEGKDGKQYESVLMVSIDQLLDSMKEIGSNCLNNEFNFFKRHICDANKEGMFLFRAARKLRQFLKMNSTGDFDLHLLKVSEGTTILLNCTGQVKGRKPAALGEAQPTKSLEENKSLKEQKKLNDLCFLKRLLQEIKTCYNKILMGTKEH
As for B3, the pSTAT5 signal in human PBMC T cells, EC50 in assay [2] is 208 ng/mL. Besides, the EC50 in assay [3] amounted to 0.0446 µg/mL.

B4: IgG4 G4S3 IL7 WT (protein, from a related filing, part only)
heavy: QIQLVQSGSELKKPGASVKVSCKASGYTFTHYAMNWVRQAPGQGLEWMGWINTNTGEPTYAQGFTGRFVFSLDTSVSTAYLQISSLKAEDTAVYYCAREREPGMDNWGQGTLVTVSSASTKGPSVFPLAPCSRSTSESTAALGCLVKDYFPEPVTVSWNSGALTSGVHTFPAVLQSSGLYSLSSVVTVPSSSLGTKTYTCNVDHKPSNTKVDKRV[here human IgG4 Fc with S228P L445P (EU numbers) without letters]GGGGSGGGGSGGGGSDCDIEGKDGKQYESVLMVSIDQLLDSMKEIGSNCLNNEFNFFKRHICDANKEGMFLFRAARKLRQFLKMNSTGDFDLHLLKVSEGTTILLNCTGQVKGRKPAALGEAQPTKSLEENKSLKEQKKLNDLCFLKRLLQEIKTCWNKILMGTKEH
light: DVVMTQSPLSLPVTLGQPASISCRSSQSLVHANTNTYLEWYQQRPGQSPRLLIYKVSNRFSGVPDRFSGSGSGTDFTLKISRVEAEDVGVYYCFQGTHVPNTFGQGTKLEIKRTVAAPSVFIFPPSDEQLKSGTASVVCLLNNFYPREAKVQWKVDNALQSGNSQESVTEQDSKDSTYSLSSTLTLSKADYEKHKVYACEVTHQGLSSPVTKSFNRGEC
With B4, in assay [2], the pSTAT5 signal in human PBMC T cells, EC50 was 76 ng/mL and the pSTAT5 signal in human PBMC T cells, EC50 (second experiment, other donor) was determined as 0.52 ng/mL. In assay [4], this molecule gave a Kd of 0.0414 nM, a Kd2 of 0.000122 s⁻¹ and a kon of 5.76e+06 M⁻¹ s⁻¹. Also, the Kd in assay [5] was 118 nM. The EC50 in assay [3] was found to be 0.0184 µg/mL.

B5: IgG4 G4S3 IL7 SS2 (protein, from a related filing, part only)
heavy: QIQLVQSGSELKKPGASVKVSCKASGYTFTHYAMNWVRQAPGQGLEWMGWINTNTGEPTYAQGFTGRFVFSLDTSVSTAYLQISSLKAEDTAVYYCAREREPGMDNWGQGTLVTVSSASTKGPSVFPLAPCSRSTSESTAALGCLVKDYFPEPVTVSWNSGALTSGVHTFPAVLQSSGLYSLSSVVTVPSSSLGTKTYTCNVDHKPSNTKVDKRV[here human IgG4 Fc with S228P L445P (EU numbers) without letters]GGGGSGGGGSGGGGSDSDIEGKDGKQYESVLMVSIDQLLDSMKEIGSNCLNNEFNFFKRHISDANKEGMFLFRAARKLRQFLKMNSTGDFDLHLLKVSEGTTILLNSTGQVKGRKPAALGEAQPTKSLEENKSLKEQKKLNDLCFLKRLLQEIKTSWNKILMGTKEH
light: DVVMTQSPLSLPVTLGQPASISCRSSQSLVHANTNTYLEWYQQRPGQSPRLLIYKVSNRFSGVPDRFSGSGSGTDFTLKISRVEAEDVGVYYCFQGTHVPNTFGQGTKLEIKRTVAAPSVFIFPPSDEQLKSGTASVVCLLNNFYPREAKVQWKVDNALQSGNSQESVTEQDSKDSTYSLSSTLTLSKADYEKHKVYACEVTHQGLSSPVTKSFNRGEC
Take B5: in assay [2], the pSTAT5 signal in human PBMC T cells, EC50 (second experiment, other donor) worked out at 2400 ng/mL. Further, in assay [4], the Kd is 7.22 nM, the Kd2 was found to be 0.00155 s⁻¹ and the kon was 611000 M⁻¹ s⁻¹. Also, the Kd in assay [5] was determined as 3100 nM.

B6: IGG4 G4S3 IL7 SS3 (protein, from a related filing, part only)
heavy: QIQLVQSGSELKKPGASVKVSCKASGYTFTHYAMNWVRQAPGQGLEWMGWINTNTGEPTYAQGFTGRFVFSLDTSVSTAYLQISSLKAEDTAVYYCAREREPGMDNWGQGTLVTVSSASTKGPSVFPLAPCSRSTSESTAALGCLVKDYFPEPVTVSWNSGALTSGVHTFPAVLQSSGLYSLSSVVTVPSSSLGTKTYTCNVDHKPSNTKVDKRV[here human IgG4 Fc with S228P L445P (EU numbers) without letters]GGGGSGGGGSGGGGSDCDIEGKDGKQYESVLMVSIDQLLDSMKEIGSNSLNNEFNFFKRHISDANKEGMFLFRAARKLRQFLKMNSTGDFDLHLLKVSEGTTILLNSTGQVKGRKPAALGEAQPTKSLEENKSLKEQKKLNDLSFLKRLLQEIKTCWNKILMGTKEH
light: DVVMTQSPLSLPVTLGQPASISCRSSQSLVHANTNTYLEWYQQRPGQSPRLLIYKVSNRFSGVPDRFSGSGSGTDFTLKISRVEAEDVGVYYCFQGTHVPNTFGQGTKLEIKRTVAAPSVFIFPPSDEQLKSGTASVVCLLNNFYPREAKVQWKVDNALQSGNSQESVTEQDSKDSTYSLSSTLTLSKADYEKHKVYACEVTHQGLSSPVTKSFNRGEC
On to B6, for which, in assay [2], the pSTAT5 signal in human PBMC T cells, EC50 (second experiment, other donor) was 4350 ng/mL. In assay [4], the Kd2 worked out at 0.000602 s⁻¹ and the kon came to 1960 M⁻¹ s⁻¹.

These data come from patent publication US20230071889A1.
